# Data as given in PubChem BioAssay AID1345082 (National Center for Advancing Translational Sciences (NCATS), 2018).
# In all, about 94,000 compounds went through this assay and about 4,000 (4.3%) were called active. The shares of active, inactive and inconclusive entries below differ from those in the screen. Calls follow the shape of the dose curve; as a rule, active = well fitted inhibition curve with a large enough effect; inconclusive = small, poorly fitted or top-dose-only effect; inactive = no such curve, though single readings can be large or run the other way. Potencies beside an inconclusive call are fits to weak or partial responses and may not hold up.
# Assay: Cytotoxic Profiling in NIH 3T3 Cell Line of Diverse Libraries Using Quantitative High-Throughput Screening; also: nearly all actives have a fitted effect of over 55% in size
# Details: NIH 3T3 viability, CellTiter-Glo ATP luminescence, 48-72 h; series mostly up to 96.7 µM
# In short: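 Cytotoxicity was measured by CellTiter-Glo ATP luminescence after 48 or 72 h compound exposure at 37 °C. Mouse NIH 3T3 fibroblasts were seeded at 400 cells/well and dosed by 23 nL pin transfer.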
# Potency is read from the fitted curve at half-maximal effect; tags tell the direction and shape of the fitted curve.
row,SMILES,Potency
1,CC(O)CNS(=O)(=O)c1cccc(C(=O)Nc2cccc3c2CCC3)c1 (configuration not stated),inactive
2,O=C(Cn1ccn2nc(-c3ccc(F)cc3)c(CO)c2c1=O)N1CCCCCC1,inactive
3,COc1ccc(-c2cc(N3CCN(C(=O)Cc4ccc(Br)cc4)CC3)n[nH]2)cc1,inactive
4,Cn1ncc2c(C(=O)NCc3ccc(F)cc3)cc(-c3ccccc3)nc21,"inconclusive: 35.5 µM [inhibitor, full curve, poor fit]"
5,CN(C)C(=O)c1ccc(OC2CCN(C(=O)c3ccc(Br)cc3)CC2)nc1,"inconclusive: 50.1 µM [inhibitor, partial curve, poor fit]"
6,O=C(c1ccc2nnc(-c3cccc(C(F)(F)F)c3)n2c1)N1CCOCC1,"inconclusive: 79.4 µM [inhibitor, partial curve, poor fit]"
7,Cn1ncc2c(N3CCN(S(N)(=O)=O)CC3)nc(C3CCCC3)nc21,active: 39.8 µM
8,COc1ccccc1-c1cc(C(=O)NCC(F)(F)F)nn2cnnc12,inactive
9,Cc1cn2nc(C(=O)NC3CCCCC3)cc2c(N2CCCC2)n1,inactive
10,O=C(c1ccccc1Cl)N1CCc2nc(-c3ccccc3)nc(-c3ccc(Cl)cc3)c2C1,"inconclusive: 28.2 µM [inhibitor, partial curve]"
11,CCc1ncc(C(=O)N2CCCC(CCc3cccc(C(F)(F)F)c3)C2)cn1 (configuration not stated),"inconclusive: 31.6 µM [inhibitor, full curve, poor fit]"
12,O=C(NC1CCCC1)N1CCN(Cc2ccccc2-c2cccnc2)CC1,"inconclusive: 50.1 µM [inhibitor, partial curve, poor fit]"
13,O=C(N[C@H]1CCN2C(=O)c3cc(-c4ccccc4F)ccc3NC(=O)[C@H]12)c1cccs1,"inconclusive: 70.8 µM [inhibitor, partial curve, poor fit]"
14,COC1CCCN(c2cc(-c3cccnc3)nc3c(C)noc23)C1 (configuration not stated),active: 35.5 µM
15,O=C(NCCc1ccccc1)c1ccc2nnc(CC3CC3)n2c1,"inconclusive: 89.1 µM [inhibitor, partial curve, poor fit]"
16,Cc1ccc(C)c(NC(=O)c2cc3n(n2)CC(c2ccc(Cl)cc2)OC3)c1 (configuration not stated),"inconclusive: 44.7 µM [inhibitor, partial curve, poor fit]"
17,COCCOCc1nc(C2CCCCN2C(=O)NCc2ccccc2)no1 (configuration not stated),inactive
18,CCCNC(=O)CCC1CCCN(S(=O)(=O)c2ccc(C)cc2)C1 (configuration not stated),inactive
19,CC(C)NC(=O)c1cc(C(C)(C)C)c2cccn2n1,inactive
20,CC(C)CCN1CCCC2(C1)C(=NC1CCCC1)NC(=O)N2c1cc(F)cc(F)c1 (configuration not stated),active: 31.6 µM
21,COC(=O)N1CCN2C[C@@H](C(N)=O)[C@H](c3ccccc3)[C@H]2C1,"inconclusive: 79.4 µM [inhibitor, partial curve, poor fit]"

row,SMILES,Potency
1,O=C(NCc1cccc(F)c1)C1CCCCN1Cc1ccc(-c2ccsc2)cc1 (configuration not stated),active: 28.2 µM
2,C[C@@H]1C(=O)O[C@H]2[C@H]1CC[C@@]1(C)Cc3sc(NC(=O)CS(=O)(=O)c4ccccc4)nc3[C@@H](C)[C@H]21,"inconclusive: 35.5 µM [inhibitor, full curve, poor fit]"
3,O=C1COCC2(CN1Cc1cccc(OC(F)(F)F)c1)CN(c1ccccc1F)C2,active: 89.1 µM
4,c1ccc2nc(-n3nc(C4CCOC4)nc3C3CC3)cnc2c1 (configuration not stated),"inconclusive: 89.1 µM [inhibitor, single point]"
5,COc1ccc(NC(=O)c2c(C)oc3ccn(Cc4cccc(F)c4)c(=O)c23)c(OC)c1,"inconclusive: 35.5 µM [inhibitor, partial curve]"
6,Cn1ncc2c(C(=O)NCc3cccc(F)c3)cc(-c3cccc(C(F)(F)F)c3)nc21,"inconclusive: 56.2 µM [inhibitor, single point]"
7,Cc1nn(-c2ccccc2)c2c1C(C(C)C)N(C1CCN(C(=O)N(C)C)CC1)C2=O (configuration not stated),"inconclusive: 44.7 µM [inhibitor, partial curve, poor fit]"
8,COc1ccc(-c2cc(-c3cccnc3)c3cncn3c2)cc1OC,active: 35.5 µM
9,Cc1ccc(-c2cn3cc(C(=O)NCCc4ccccc4F)nc3s2)cc1,inactive
10,CSc1ccc2cc(CN3CC[C@@H](O)C3)c(-c3ccc(Cl)cc3)nc2c1,"inconclusive: 79.4 µM [inhibitor, partial curve]"
11,Cc1cccc(CNc2ccc3nnc(C)n3n2)c1,"inconclusive: 39.8 µM [inhibitor, partial curve, poor fit]"
12,CNC(=O)[C@H]1CN(C(=O)c2cccc(OC)c2)[C@]2(C)C(=O)N(CC3CC3)c3ccccc3[C@H]12,"inconclusive: 31.6 µM [inhibitor, partial curve, poor fit]"
13,Cc1nn2c(c1-c1ccccc1-c1ccccc1)N(Cc1cccc(O)c1)CCC2,"inconclusive: 17.8 µM [inhibitor, full curve, poor fit]"
14,CSCC(=O)N[C@H]1CCN2C(=O)N(c3ccc(C(C)C)cc3)C(=O)[C@@H]2C1,inactive
15,CCOC1CCOC2(CCN(C(=O)Cc3ccccc3)CC2)C1 (configuration not stated),inactive
16,O=C(C1CCCC1)N1CCn2c(nn(-c3ccc([N+](=O)[O-])cc3)c2=O)C1,"inconclusive: 35.5 µM [inhibitor, partial curve]"
17,CC1(C(=O)N2CCN(c3ccccn3)CC2)CCc2cnc(Nc3ccccc3)nc21 (configuration not stated),"inconclusive: 100 µM [inhibitor, single point]"
18,CC(C)CNc1ccc2c(n1)C(C)(C(=O)NC(C)C)CN(Cc1ccccc1)C2 (configuration not stated),active: 35.5 µM
19,CCOC(=O)C1CCCN(C(=O)c2nc3sccn3c2-c2ccc(C(F)(F)F)cc2)C1 (configuration not stated),"inconclusive: 50.1 µM [inhibitor, partial curve, poor fit]"
20,O=C(c1ccn[nH]1)N1CCC(c2noc(COc3ccc(F)cc3)n2)CC1,"inconclusive: 44.7 µM [inhibitor, partial curve, poor fit]"
21,COc1ccc2c(c1)C(COCc1ccc(C(=O)O)cc1)=CC(C)(C)O2,"inconclusive: 35.5 µM [inhibitor, partial curve]"
